# In PubChem BioAssay AID504333 (National Center for Advancing Translational Sciences (NCATS), 2011):
# “And” between values parts separate entries of the source, which are not always exact repeats. Equal entries are not always repeated. In all, about 360,000 compounds went through this assay and about 16,000 (4.4%) were called active. Inconclusive results, whose numbers are uncertain, are shown with a selection of clear calls. Calls follow the shape of the dose curve; as a rule, active = well fitted inhibition curve with a large enough effect; inconclusive = small, poorly fitted or top-dose-only effect; inactive = no such curve, though single readings can be large or run the other way. Potencies beside an inconclusive call are fits to weak or partial responses and may not hold up.
# Target: Bromodomain adjacent to zinc finger domain protein 2B (Homo sapiens) (UniProt Q9UIF8)
# Assay: qHTS Assay for Inhibitors of BAZ2B; also: nearly all actives have a fitted effect of over 60% in size
# Settings: AlphaScreen BAZ2B-H3K14Ac peptide displacement; series mostly up to 114 µM
# Summary of the method: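 Complex of BAZ2B and biotin-H3K14Ac (50 nM apiece) forms over 30 min at RT, then faces library compounds up to 110 uM for another 30 min; AlphaScreen beads added, 20 min dark incubation, luminescence read.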
# Potency is read from the fitted curve at half-maximal effect; tags tell the direction and shape of the fitted curve.
# Chain of UniProt Q9UIF8 (Q9UIF8 whole entry, looked up, the tested form may be a part): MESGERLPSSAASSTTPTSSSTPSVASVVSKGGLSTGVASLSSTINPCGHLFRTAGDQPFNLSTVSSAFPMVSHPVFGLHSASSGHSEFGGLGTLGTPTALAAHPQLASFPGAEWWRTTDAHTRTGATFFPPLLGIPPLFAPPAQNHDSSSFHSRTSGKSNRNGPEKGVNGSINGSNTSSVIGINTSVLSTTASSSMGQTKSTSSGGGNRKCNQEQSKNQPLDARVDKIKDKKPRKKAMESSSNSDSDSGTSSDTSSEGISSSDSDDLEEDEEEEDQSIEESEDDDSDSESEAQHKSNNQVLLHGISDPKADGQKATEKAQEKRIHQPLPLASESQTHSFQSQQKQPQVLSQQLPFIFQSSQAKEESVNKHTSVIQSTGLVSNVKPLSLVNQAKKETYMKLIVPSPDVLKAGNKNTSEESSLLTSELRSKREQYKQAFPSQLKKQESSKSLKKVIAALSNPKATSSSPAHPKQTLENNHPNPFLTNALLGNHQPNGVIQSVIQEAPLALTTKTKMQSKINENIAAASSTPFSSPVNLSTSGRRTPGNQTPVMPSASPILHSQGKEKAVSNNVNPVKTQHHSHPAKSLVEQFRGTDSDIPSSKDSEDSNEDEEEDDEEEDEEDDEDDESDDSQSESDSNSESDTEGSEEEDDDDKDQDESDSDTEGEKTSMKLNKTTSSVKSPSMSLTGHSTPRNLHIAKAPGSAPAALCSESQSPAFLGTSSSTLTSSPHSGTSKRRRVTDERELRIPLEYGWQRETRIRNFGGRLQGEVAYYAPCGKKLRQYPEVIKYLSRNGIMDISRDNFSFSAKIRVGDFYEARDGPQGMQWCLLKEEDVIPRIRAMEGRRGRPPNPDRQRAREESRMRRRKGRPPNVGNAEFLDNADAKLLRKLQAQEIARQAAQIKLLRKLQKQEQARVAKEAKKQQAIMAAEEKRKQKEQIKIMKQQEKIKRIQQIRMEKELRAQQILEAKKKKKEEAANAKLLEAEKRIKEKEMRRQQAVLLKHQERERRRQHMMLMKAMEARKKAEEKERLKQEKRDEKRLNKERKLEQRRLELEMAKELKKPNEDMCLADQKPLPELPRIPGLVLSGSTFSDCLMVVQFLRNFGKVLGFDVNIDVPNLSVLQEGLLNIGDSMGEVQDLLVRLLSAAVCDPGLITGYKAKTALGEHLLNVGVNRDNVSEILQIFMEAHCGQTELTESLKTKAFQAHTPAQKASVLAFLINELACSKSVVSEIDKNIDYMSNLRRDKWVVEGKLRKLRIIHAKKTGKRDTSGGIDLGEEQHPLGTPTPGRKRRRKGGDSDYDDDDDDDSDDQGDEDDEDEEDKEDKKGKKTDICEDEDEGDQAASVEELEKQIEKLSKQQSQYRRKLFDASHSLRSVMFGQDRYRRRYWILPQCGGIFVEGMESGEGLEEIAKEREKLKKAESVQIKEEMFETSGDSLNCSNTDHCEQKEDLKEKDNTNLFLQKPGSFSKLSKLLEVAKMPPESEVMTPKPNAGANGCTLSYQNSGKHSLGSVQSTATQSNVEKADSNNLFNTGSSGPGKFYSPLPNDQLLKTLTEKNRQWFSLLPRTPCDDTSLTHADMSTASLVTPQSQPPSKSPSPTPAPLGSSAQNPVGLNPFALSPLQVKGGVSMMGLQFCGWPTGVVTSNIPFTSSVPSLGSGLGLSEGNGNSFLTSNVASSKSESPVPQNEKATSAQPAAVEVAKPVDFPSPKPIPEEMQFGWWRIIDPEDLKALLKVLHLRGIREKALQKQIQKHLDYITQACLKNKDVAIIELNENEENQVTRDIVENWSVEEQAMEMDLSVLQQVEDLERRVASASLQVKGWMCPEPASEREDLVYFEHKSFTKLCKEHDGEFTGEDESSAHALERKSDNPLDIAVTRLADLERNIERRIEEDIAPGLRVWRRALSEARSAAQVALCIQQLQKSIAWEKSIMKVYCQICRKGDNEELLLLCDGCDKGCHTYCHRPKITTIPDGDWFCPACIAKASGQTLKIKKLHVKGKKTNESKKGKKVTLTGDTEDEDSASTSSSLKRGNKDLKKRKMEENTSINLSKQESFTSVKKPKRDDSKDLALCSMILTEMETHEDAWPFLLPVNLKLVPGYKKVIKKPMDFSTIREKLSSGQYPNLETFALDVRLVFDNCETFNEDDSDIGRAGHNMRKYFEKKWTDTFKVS
row,SMILES,Potency
1,COc1ccc(N2C(=O)C3C(C2=O)C(C(=O)c2ccc(Cl)cc2)N2CCCC32)cc1 (stereo not drawn),"inconclusive: 50.1 µM [inhibitor, partial curve]"
2,CCOC(=O)c1c(S(=O)(=O)N2CCC(C(=O)N3CCN(c4cccc(C)c4C)CC3)CC2)c(C)n(C)c1C,"inconclusive: 35.5 µM [inhibitor, full curve]"
3,O=C(O)c1ccc(Cl)c(S(=O)(=O)Nc2ccc3cn[nH]c3c2)c1,"inconclusive: 79.4 µM [inhibitor, single point]"
4,CC1CCCN(CCOCCOc2ccc(Cl)cc2Br)C1 (stereo not drawn),"inconclusive: 89.1 µM [inhibitor, single point]"
5,CCCOc1cccc(C(=O)Nc2ccc3c(c2)OCCO3)c1,"inconclusive: 39.8 µM [inhibitor, single point]"
6,Nc1nc(-c2cc(O)ccc2[N+](=O)[O-])cc(-c2ccccc2)c1[N+](=O)[O-],"inconclusive: 89.1 µM [inhibitor, single point]"
7,CCCCCCN1C=CC=C/C1=C\C=C(C#N)C#N,active: 35.5 µM
8,CC(C)Oc1cccc(NC(=O)C2CCN(S(=O)(=O)Cc3ccccc3)CC2)c1,"inconclusive: 89.1 µM [inhibitor, single point]"
9,O=C(/C=C/c1ccc(Br)o1)OCc1ccccc1,inactive
10,CC(=O)c1cccc(NC(=O)CCS(=O)(=O)c2cc3c(cc2C)NC(=O)CO3)c1,"inconclusive: 89.1 µM [inhibitor, single point]"
11,Cc1ccc(CNC(=O)C2c3ccccc3C(=O)N(C)C2c2c[nH]c3ccccc23)o1 (stereo not drawn),"inconclusive: 50.1 µM [inhibitor, partial curve]"
12,O=S(=O)(Nc1cccc(Cl)c1)c1ccc2[nH]c3c(c2c1)CCCCCC3,"inconclusive: 56.2 µM [inhibitor, partial curve, poor fit]"
13,COc1cc(N=Cc2c(O)c3ccccc3oc2=O)c(OC)cc1Cl,"inconclusive: 89.1 µM [inhibitor, single point]"
14,COc1ccc(N2CCN(C(=O)Cc3coc4ccc(C)cc34)CC2)cc1,active: 39.8 µM
15,CCC(=O)Nc1ccc2c(c1)ncn2-c1ccc(C)cc1,"inconclusive: 89.1 µM [inhibitor, single point]"
16,Cc1c(NC(=O)/C(C#N)=C/c2ccc(-c3ccc(Cl)cc3)o2)c(=O)n(-c2ccccc2)n1C,active: 50.1 µM
17,S=C(NCc1ccccn1)Nc1ccc(Cl)cc1Cl,"inconclusive: 89.1 µM [inhibitor, single point]"
18,N#C/C(=C\c1ccc(-c2ccccc2C(=O)O)o1)c1nc2ccccc2[nH]1,active: 50.1 µM and active: 79.4 µM
